Data published in patent US20260034119A1, “5-METHOXY-N,N-[…][…], THEIR […], AND METHODS FOR TREATMENT OF NEUROLOGICAL, […], AND SUBSTANCE USE DISORDERS” (priority 2023, published 2026).

Target: 5-HT1A F361L (Homo sapiens, UniProt P08908, F361L)
Sequence (P08908 whole entry F361L): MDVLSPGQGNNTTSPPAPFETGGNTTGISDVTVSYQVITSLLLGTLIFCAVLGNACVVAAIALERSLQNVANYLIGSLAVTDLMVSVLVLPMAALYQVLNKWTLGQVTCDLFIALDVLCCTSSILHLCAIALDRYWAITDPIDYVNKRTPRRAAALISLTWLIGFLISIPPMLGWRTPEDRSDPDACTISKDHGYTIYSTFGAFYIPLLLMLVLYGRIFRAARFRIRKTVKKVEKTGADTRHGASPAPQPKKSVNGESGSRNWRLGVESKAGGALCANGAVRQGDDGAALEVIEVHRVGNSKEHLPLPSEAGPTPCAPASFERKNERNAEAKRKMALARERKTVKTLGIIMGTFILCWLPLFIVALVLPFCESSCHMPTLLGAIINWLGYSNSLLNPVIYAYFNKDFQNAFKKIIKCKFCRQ

With COc1ccc2[nH]cc(CCN3CCCC3)c2c1F [4-F, 5-MeO-PyrT, 4-Fluoro, 5-methoxypyrrolidinyl-tryptamine] the EC50 (cAMP, 5-HT1A F361L^6.51) was 0.84 nM, the pEC50 (cAMP, 5-HT1A F361L^6.51) was 9.08 and the “Fold-Change (F361L EC50/WT EC50)” value (cAMP, 5-HT1A F361L^6.51 vs 5-HT1A WT) was 29.

For COc1ccc2[nH]cc(CCN(C)C)c2c1 [Compound 5-MeO-DMT, 5-methoxy-N,N-dimethyltryptamine, reference compound], the “5-HT1A potency loss by F361 mutation” value (mutant vs wildtype 5-HT1A) was “greater 5-HT1A potency loss than 4-F, 5-MeO-PyrT”.
